Results: paper PMC6096091, “A two-domain folding intermediate of RuBisCO in complex with the GroEL chaperonin” (International Journal of Biological Macromolecules, 2018)

Target: the molecule itself
Assay: cryo-EM structure; binary complex made by 100-fold dilution of acid-urea denatured RuBisCO into 0.1 uM GroEL_(D473C.His6) in 50 mM HEPES pH 7.5, 10 mM KOAc, 10 mM Mg(OAc)2, 5 mM DTT; GroEL 14-mer:RuBisCO monomer 1:2.5; 10 min at 24 °C; single particle cryo-EM, asymmetric reconstructions of 3 classes, 11–12 Å

B1: E. coli GroEL_(D473C.His6), D473C mutant of GroEL with 6 His tag modification on the mutated cysteine 473 (complex)
chain: not shown
modifications: 6-His-tag modification on the mutated cysteine 473
notes: GroEL chaperonin (large subunit of the GroE operon), Escherichia coli, D473C mutant; the fitted crystal structure is PDB 1OEL; Homo-14-mer of two back-to-back rings of 7; The His6 is a modification attached to the side chain of cysteine 473 (to favour side views), not a terminal tag; also called GroEL_(D473C-6His); GroEL 14-mer; source: expressed and purified as described [20]; copies: 14
B1: binds.
